Results reported in PubChem BioAssay AID602293 (National Center for Advancing Translational Sciences (NCATS), 2012).
The whole screen tested about 1,300 compounds, of which about 30 (2%) were called active. Not shown: some 10% with an inconclusive outcome. Calls come from the whole dose curve; as a rule, active = well fitted inhibition curve with a large enough effect; inconclusive = small, poorly fitted or top-dose-only effect; inactive = flat fitted curve, though single readings scatter. The list shows a part of the results.

Experiment: qHTS for antagonists of the Thyroid Stimulation Hormone Receptor: Hit Validation in HTRF Activity in a Luteinizing Hormone Receptor Cell Line
Details: LHR-expressing cell line, cAMP HTRF, antagonist mode; series mostly up to 58 µM; activity change, negative = inhibition: at the top concentration
Summary of the method: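 Counter-screen on LH receptor–transfected HEK 293 cells: 30 min compound exposure at room temperature in medium containing 100 uM RO 20-1724 phosphodiesterase inhibitor. Cellular cAMP read by competitive HTRF after lysis with d2-cAMP and anti-cAMP antibody (330 nm excitation; 615/660 nm emission).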
% is set by controls: 0 for no effect and ±100 for the full control effect; potency is the fitted concentration of half-maximal effect.

SMILES	activity change, negative = inhibition	Potency
O=C(COCc1cc(-c2cccs2)on1)NC1CCCCC1	inactive: 1.06%	–
CCCn1c(COc2ccccc2OC)nc2ccccc21	inactive: 2.43%	–
O=S(=O)(Nc1cccc(-c2ccc(N3CCCCCC3)nn2)c1)c1ccc(F)cc1	inactive: 1.26%	–
O=C(NCCCN1CCOCC1)c1ccc2c(c1)N(Cc1ccc(Cl)cc1)C(=O)c1ccccc1S2=O (stereo not given)	inactive: -1%	–
CCOc1ccccc1-n1c(=S)sc2c(=O)n(-c3ccc(F)cc3)c(SCC(=O)O)nc21	inactive: 2.46%	–
O=C(CN1C(=O)c2ccccc2S1(=O)=O)NCCSCc1cccc(Cl)c1	inactive: 0.136%	–
O=C(c1cccc(Cl)c1)N1CCN(Cc2ccc3c(c2)OCO3)CC1	inactive: -1.45%	–
CSCc1cc(N2CCOCC2)nc(SCc2ccc(Cl)cc2Cl)n1	inactive: -2.04%	–
Cc1sc2ncn(CC(=O)NCCCC(=O)NCc3ccc(F)cc3)c(=O)c2c1C	inactive: 2.32%	–
Cc1ccc(Oc2cc(NC(=O)CCCn3nc([N+](=O)[O-])cc3C)cc([N+](=O)[O-])c2)cc1	inactive: -1.1%	–
CCCc1nnc(NC(=O)c2nc(S(=O)(=O)Cc3ccc(C)cc3)ncc2Cl)s1	inactive: -2.21%	–
N#Cc1c(C(F)(F)F)cc(-c2ccc(Cl)cc2)[nH]c1=O	inactive: -1.6%	–
COc1ccc(S(=O)(=O)n2cnc3ccccc32)c(C)c1	inactive: 0.203%	–
N/C(=N\OC(=O)Nc1ccccc1)c1cccc(C(F)(F)F)c1	inactive: -2.16%	–
COc1ccc(NS(=O)(=O)c2cc(-c3cnc(C4CC4)o3)ccc2C)cc1	inactive: -3.75%	–
O=C1NC(=S)N(C(=O)c2ccc(F)cc2)/C1=C/c1ccccc1	inactive: -0.482%	–
COc1cc2sc3ccc(-c4ccc(CN5CCOCC5)cc4)cc3c(=O)c2cc1OC	inactive: -5.62%	–
COc1ccc(C(C(=O)NC(C)(C)C)N(CCc2ccccc2)C(=O)CCC(=O)Nc2cc(C)on2)cc1 (stereo not given)	inactive: -0.384%	–
COc1cc(/C=N/Nc2ccc(C(=O)O)cc2)ccc1O	inactive: -2.75%	–
O=C(CSc1nnc(-c2ccncc2)n1Cc1ccco1)Nc1nc(-c2ccccc2)cs1	inactive: -5.06%	–
Cc1ccccc1NC(=O)CCc1c(C)nn(-c2ccc(N3CCOCC3)nn2)c1C	inactive: 2.96%	–
CC(C)Oc1ccc(C(=O)Nc2ccc(Cl)c(S(=O)(=O)Nc3ccc(Cl)cc3)c2)cc1	inactive: -1.11%	–

SMILES	activity change, negative = inhibition	Potency
O=C(Nc1nc(-c2ccc(F)cc2)cs1)C1CCN(C(=O)c2ccc(F)cc2)CC1	inactive: -5.39%	–
O=[N+]([O-])c1cc(S(=O)(=O)C(F)(F)F)ccc1Sc1nc2ccccc2s1	inactive: 0.782%	–
O=C(Nc1ccncc1)c1cccc(S(=O)(=O)N2CCc3ccccc32)c1	inactive: -0.492%	–
Nc1nc(SCC(=O)Nc2ccc([N+](=O)[O-])cc2)[nH]c(=O)c1NC(=O)c1ccc(Br)cc1	inactive: 2.47%	–
Cc1cccc(OC2CCN(Cc3nc(CC4CC4)no3)CC2)c1	inactive: 1.84%	–
Cc1ccc(CN2C(=O)c3ccccc3Sc3ccc(C(=O)NCCCN4CCOCC4)cc32)cc1	inactive: -1.01%	–
O=C(CN1C(=O)NC2(CCCc3ccccc32)C1=O)N1CCN(c2cccc(C(F)(F)F)c2)CC1 (stereo not given)	inactive: -0.905%	–
CCCCn1c(/N=C/c2ccccc2NS(=O)(=O)c2ccc(C)cc2)nc2ccccc21	inactive: -0.666%	–
Cc1ccc(S(=O)(=O)N(Cc2ccccc2)c2ccccc2C(=O)N2CCCCC2)cc1	inactive: -4.43%	–
O=C(Nn1cnnc1)C(c1ccccc1)c1ccccc1	inactive: 0.913%	–
O=C(CSc1nc(-c2ccc(Cl)cc2)cs1)Nc1cccc([N+](=O)[O-])c1	inactive: -2.02%	–
CC1Cc2ccccc2N1C(=O)COC(=O)/C=C/c1cccc(F)c1 (stereo not given)	inactive: -1.41%	–
COc1cccc(CNC(=O)c2nnn(CC(=O)Nc3cc(Cl)ccc3C)c2N)c1	inactive: -1.09%	–
N#C/C(=C\c1ccc(Oc2ccc(C(F)(F)F)cc2[N+](=O)[O-])cc1)c1nc2ccccc2[nH]1	inactive: -4.27%	–
O=C(Nc1c(F)cc(F)cc1Br)c1cc(-c2ccc(O)cc2)on1	inactive: -2.05%	–
N=c1oc2ccccc2cc1C(=O)NC1CCCCCC1	inactive: -0.828%	–
O=C(NCCN1CCOCC1)c1c(Cl)cccc1Cl	inactive: 2.3%	–
COc1ccc(CN2CCCN(C)CC2)c(OC)c1C	inactive: 1.58%	–
Cc1nn(CCCC(=O)Nc2cc(Oc3ccccc3)cc([N+](=O)[O-])c2)c(C)c1[N+](=O)[O-]	inactive: -1.58%	–
Cc1cc(C)n(C(=O)/C(C#N)=N/Nc2cc(Cl)cc(Cl)c2)n1	inactive: -1.47%	–
Cc1ccc(-c2ccc(/C=N/N=C3/NC(=O)C(CC(=O)O)S3)o2)c([N+](=O)[O-])c1 (stereo not given)	inactive: 1.91%	–
O=C1C=CC(=O)N1CCCCCCN1C(=O)C=CC1=O	–	active: 33.8 µM

SMILES	activity change, negative = inhibition	Potency
CCn1nc([N+](=O)[O-])c(C(C#N)c2nc3cc(C(F)(F)F)ccc3s2)c(Cl)c1=O (stereo not given)	inactive: -0.764%	–
CCCn1nnc(NC(=O)C(C)Oc2ccc(Cl)cc2Cl)n1 (stereo not given)	inactive: 1.8%	–
Cc1ccc(SC(CC(=O)c2ccc(C(C)(C)C)cc2)C(=O)O)cc1 (stereo not given)	inactive: -0.365%	–
O=c1nc(/C=C/c2ccccc2C(F)(F)F)cc(C(F)(F)F)[nH]1	inactive: 2.32%	–
C/C(=N\NC(=O)c1cccc(Cl)c1)C1C(=O)c2ccccc2C1=O	inactive: -1.37%	–
Brc1ccc(-c2nnc(-c3cccc(Br)c3)o2)cc1	inactive: 2.12%	–
Cc1csc(NC(=O)c2cc3c(s2)CCCC3)n1	inactive: -3.61%	–
CN(c1ccc(C(=O)NCCSCc2ccccc2)cc1)S(=O)(=O)c1ccccc1	inactive: 1.01%	–
COc1ccccc1NS(=O)(=O)c1cc(NC(=O)c2ccc3c(c2)OCCO3)ccc1C	inactive: -4.31%	–
CCn1c(=NC(=O)CSC(C)=O)sc2ccccc21	inactive: -0.266%	–
CCOc1ccccc1/C=C/c1onc(C)c1S(=O)(=O)N1CCC(C(=O)N2CCCCCC2)CC1	inactive: -2.69%	–
N=c1oc2cc(O)ccc2cc1C(=O)Nc1ccc(Br)cc1	inactive: -3.72%	–
COCC(C)n1c(COc2ccccc2F)nnc1SCc1c(C)noc1C (stereo not given)	inactive: 0.548%	–
Cc1cc(C#N)c(SCC(N)=O)nc1-c1ccc(F)cc1	inactive: -0.969%	–
CC(C)(C)C(=O)NC(=S)NNC(=O)c1ccc(-c2ccccc2)cc1	inactive: 0.136%	–
N#Cc1cccc(NC(=O)COC(=O)c2cc(S(=O)(=O)Nc3ccccc3Cl)ccc2O)c1	inactive: -0.298%	–
CC1=NN(C(N)=S)C(=O)C1N=Nc1c(Br)cc(Br)cc1Br (stereo not given)	inactive: 1.89%	–
Cc1cccc(NC(=O)C2CCN(S(=O)(=O)c3ccc4c(c3)NC(=O)CO4)CC2)c1	inactive: -0.591%	–
O=C(Nc1cccc2ccccc12)c1ccccc1	inactive: -0.733%	–
CC1(C)CC2(CCCN3C(=O)CSC32)CCS1 (stereo not given)	inactive: -0.704%	–
CC(=O)N1c2ccc(S(=O)(=O)NCCC(=O)Nc3ccccc3C)cc2CC1C (stereo not given)	inactive: 3.24%	–
